{
  "source": "PubChem BioAssay AID2675",
  "about": "(National Center for Advancing Translational Sciences (NCATS), 2010)",
  "note": "The whole screen tested about 280,000 compounds, of which about 100 (0.036%) were called active. The inconclusive results got no clear call from the source; some entries with a clear call stand among them for comparison. The call rests on the fitted dose curve; in most records, active means well fitted inhibition curve with a large enough effect in the signal ratio, with a control signal flat (not every such curve was filed as active); inconclusive means small, poorly fitted or top-dose-only effect, or effect the other way, or a change in a side signal; inactive means no such curve, though single readings can be large or run the other way; the % refers to the signal ratio. Where the call is inconclusive, the potency comes from a doubtful curve fit. “Side channel” marks fits to a control or component signal instead of the main read-out. Potency means the concentration at half of the fitted maximal effect; tags describe the fitted curve by direction and shape or compound fluorescence and quenching.",
  "data": [
    {"target": "Muscleblind-like protein 1 (Homo sapiens) (UniProt Q9NR56)", "sequence (Q9NR56 whole entry, looked up)": "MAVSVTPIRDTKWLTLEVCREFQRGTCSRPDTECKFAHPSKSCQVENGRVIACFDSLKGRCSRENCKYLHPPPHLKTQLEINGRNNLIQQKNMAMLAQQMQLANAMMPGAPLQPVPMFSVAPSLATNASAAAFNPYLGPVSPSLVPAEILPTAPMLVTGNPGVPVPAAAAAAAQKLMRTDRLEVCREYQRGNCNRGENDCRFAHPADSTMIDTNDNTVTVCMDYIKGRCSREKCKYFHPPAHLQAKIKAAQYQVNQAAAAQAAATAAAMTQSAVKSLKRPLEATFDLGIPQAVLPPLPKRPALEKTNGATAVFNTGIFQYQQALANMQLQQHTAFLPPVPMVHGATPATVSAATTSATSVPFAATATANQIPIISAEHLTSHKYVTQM", "test": "qHTS Assay for Inhibitors of MBNL1-poly(CUG) RNA binding", "conditions": "TR-FRET MBNL1-His/biotin-(CUG)12 binding, 665/545 ratio; series mostly up to 57.5 µM", "in_short": "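Inhibition of protein-RNA binding appears as loss of TR-FRET between terbium anti-His antibody on MBNL1-His and streptavidin-XL665 on biotin-(CUG)12. Activity is normalized to buffer-only and uninhibited-complex controls.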", "values": [
      {"molecule": "C=CCNc1nc(N)c([N+](=O)[O-])c(NC2CCCCC2)n1", "Potency": "inactive"},
      {"molecule": "Nc1ccc(-c2cn3cccnc3n2)cc1", "Potency": "inconclusive: 12.6 µM [quencher, side channel, partial curve]"},
      {"molecule": "CCn1c(=S)sc2c(=O)n(CC(=O)Nc3cccc(OC)c3)c(C)nc21", "Potency": "inconclusive: 0.708 µM [fluorescent, side channel, single point]"},
      {"molecule": "CN(C)C(=O)c1ccc(N/C=C(\\C=O)c2nc3ccccc3o2)cc1", "Potency": "inconclusive: 17.8 µM [quencher, side channel, partial curve]"},
      {"molecule": "Cc1cccc(-c2cc3nc(C)cc(N4CC(C)CC(C)C4)n3n2)c1", "note": "(stereo not drawn)", "Potency": "inactive"},
      {"molecule": "CCN(C(=O)c1ccc(C(C)(C)C)cc1)c1nnc(Cn2nnc3ccccc32)s1", "Potency": "inactive"},
      {"molecule": "CCC(C(=O)Nc1cc(C)nn1-c1nc(C)cc(C)n1)c1ccccc1", "note": "(stereo not drawn)", "Potency": "inactive"},
      {"molecule": "Cc1sc2nc(Cc3ccccc3)[nH]c(=O)c2c1-c1ccccc1", "Potency": "inactive"},
      {"molecule": "Cc1cc(-c2ccc(C)c(S(=O)(=O)NCCc3ccc(S(N)(=O)=O)cc3)c2)on1", "Potency": "inactive"},
      {"molecule": "CC(C)=CC(=O)OCC(=O)Nc1cccc([N+](=O)[O-])c1", "Potency": "inconclusive: 11.2 µM [quencher, side channel, partial curve]"},
      {"molecule": "COc1ccc(C2=NNC(c3cccs3)=Nc3ccc(OC)cc32)cc1", "Potency": "inconclusive: 15.8 µM [quencher, side channel, partial curve]"},
      {"molecule": "O=C(CSc1nnc2ccccn12)NNC(=O)c1ccc([N+](=O)[O-])cc1", "Potency": "inconclusive: 15.8 µM [quencher, partial curve]"},
      {"molecule": "COC(=O)c1ccc(N2CCN(C(=O)C3CC3)CC2)c([N+](=O)[O-])c1", "Potency": "inconclusive: 14.1 µM [quencher, side channel, partial curve]"},
      {"molecule": "Cc1ccccc1N(C(=O)c1snc(C(N)=O)c1N)C(C(=O)NCC1CCCO1)c1ccc(F)cc1", "note": "(stereo not drawn)", "Potency": "inactive"},
      {"molecule": "O=c1ccnc(Sc2ncccc2[N+](=O)[O-])[nH]1", "Potency": "inconclusive: 39.8 µM [quencher, side channel, single point]"},
      {"molecule": "CCOc1cc(CNc2ccc(N3CCCC3)cc2)cc(Cl)c1OC", "Potency": "inconclusive: 31.6 µM [quencher, side channel, single point]"},
      {"molecule": "CC(C)(CO)NCc1c(OCc2ccc(Cl)cc2)ccc2ccccc12", "Potency": "inconclusive: 28.2 µM [quencher, side channel, single point]"},
      {"molecule": "COc1ccc(OC)c(C2C3CN(C(C)C)CC=C3C(C#N)=C(N)C2(C#N)C#N)c1", "note": "(stereo not drawn)", "Potency": "inconclusive: 28.2 µM [quencher, side channel, partial curve]"},
      {"molecule": "O=C(Nc1cc(SCCO)cc([N+](=O)[O-])c1)c1ccco1", "Potency": "inconclusive: 15.8 µM [quencher, side channel, partial curve]"},
      {"molecule": "CC(=O)c1cccc(NC(=O)CN(c2ccccc2)S(C)(=O)=O)c1", "Potency": "inconclusive: 126 µM [inhibitor, single point]"},
      {"molecule": "O=C1NC(c2ccco2)Nc2sc3c(c21)CCN(Cc1ccccc1)C3", "note": "(stereo not drawn)", "Potency": "inconclusive: 5.01 µM [quencher, side channel, full curve, poor fit]"},
      {"molecule": "O=C(c1cc2c(=O)n3ccccc3nc2s1)N1CCOCC1", "Potency": "inactive"},
      {"molecule": "O=c1[nH]c(CCl)nc2cc(-c3ccc(Cl)cc3)sc12", "Potency": "inconclusive: 14.1 µM [quencher, side channel, partial curve]"},
      {"molecule": "O=C(O)c1ccc(C(=O)c2ccc3c(c2)C(=O)N(Cc2ccco2)C3=O)cc1", "Potency": "inconclusive: 12.6 µM [quencher, partial curve]"},
      {"molecule": "CC(OC(=O)c1cc(S(=O)(=O)N(C)c2ccccc2)ccc1Cl)C(=O)Nc1ccc2c(c1)OCCO2", "note": "(stereo not drawn)", "Potency": "inconclusive: 1.26 µM [quencher, side channel, partial curve]"},
      {"molecule": "Cc1ccc2cc(C3C(C#N)=C(N)Oc4c3ccc3cccnc43)c(=O)[nH]c2c1", "note": "(stereo not drawn)", "Potency": "inconclusive: 2.82 µM [quencher, side channel, full curve]"},
      {"molecule": "CC(C)(C)c1ccc(/C=N/Nc2cccc(C(=O)O)c2)cc1", "Potency": "inactive"},
      {"molecule": "O=C(NCCCN1CCOCC1)C(=O)N/N=C/c1ccccc1Cl", "Potency": "inconclusive: 25.1 µM [quencher, side channel, partial curve]"},
      {"molecule": "Cc1nc2ccccc2c(=O)n1/N=C/c1ccc(N(C)C)cc1", "Potency": "inconclusive: 35.5 µM [quencher, side channel, partial curve, poor fit]"},
      {"molecule": "COc1ccc(NC(=S)NC(NC(=O)c2cccc(C)c2)C(Cl)(Cl)Cl)c([N+](=O)[O-])c1", "note": "(stereo not drawn)", "Potency": "inconclusive: 5.01 µM [quencher, side channel, full curve]"},
      {"molecule": "CCOc1ccc(C(=O)Nc2nc(C)cc(C)n2)cc1[N+](=O)[O-]", "Potency": "inconclusive: 39.8 µM [quencher, side channel, single point]"},
      {"molecule": "C1=C(N2CCOCC2)/C(=C/c2nc3ccccc3[nH]2)CC1", "Potency": "inconclusive: 14.1 µM [quencher, side channel, partial curve]"},
      {"molecule": "Cc1nn2c(CN(C(=O)CN3CCOCC3)c3ccccc3)nnc2c2ccccc12", "Potency": "inactive"},
      {"molecule": "O=C(O)/C=C\\c1cccc(-n2nnnc2SCc2ccccc2F)c1", "Potency": "inactive"},
      {"molecule": "CSc1nc2cc(C)nn2c(-c2ccc(C(C)(C)C)cc2)c1C#N", "Potency": "inconclusive: 39.8 µM [fluorescent, side channel, single point]"},
      {"molecule": "N#Cc1cc(C(=O)c2ccccc2O)cn(-c2ccc(Cl)cc2)c1=O", "Potency": "inconclusive: 25.1 µM [quencher, side channel, partial curve]"},
      {"molecule": "COc1ccc(/C=N/n2c(=O)[nH]c3c([nH]c4ccc(F)cc43)c2=O)cc1CN1CCCCC1", "Potency": "inconclusive: 12.6 µM [quencher, side channel, partial curve]"},
      {"molecule": "Cc1csc(SCC(=O)Nc2nc3ccccc3s2)n1", "Potency": "inactive"},
      {"molecule": "O=C(NC(=S)NC1CCCCC1)c1ccc(F)cc1", "Potency": "inactive"},
      {"molecule": "O=C(O)COc1ccc2nsnc2c1Cl", "Potency": "inconclusive: 14.1 µM [quencher, side channel, partial curve]"},
      {"molecule": "Cc1ccc(NC(=S)NNc2ccc([N+](=O)[O-])cc2S(=O)(=O)Nc2ccccc2C(=O)O)cc1C", "Potency": "inconclusive: 39.8 µM [quencher, side channel, single point]"},
      {"molecule": "O=S(=O)(c1ccc(NC(=S)N/N=C/c2ccc(O)c(O)c2)cc1)N1CCOCC1", "Potency": "inconclusive: 17.8 µM [quencher, side channel, single point]"},
      {"molecule": "O=C(COc1ccc2oc(-c3ccco3)cc(=O)c2c1)N1CCCCC1", "Potency": "inconclusive: 12.6 µM [quencher, side channel, partial curve]"},
      {"molecule": "COc1ccccc1N1CCN(CCCC(=O)c2ccc(F)cc2)CC1", "Potency": "inactive"},
      {"molecule": "COC(=O)/C=C/c1ccc(-n2cncn2)cc1", "Potency": "inconclusive: 17.8 µM [quencher, side channel, partial curve]"},
      {"molecule": "COCCCNC(=O)CNC(=O)c1nn(-c2ccc(OC)cc2)c(=O)c2ccccc12", "Potency": "inconclusive: 28.2 µM [quencher, side channel, single point]"},
      {"molecule": "CNS(=O)(=O)c1cccc(C(=O)OCC(=O)Nc2ccc(N3CCCCC3)cc2)c1", "Potency": "inactive"},
      {"molecule": "C(=N\\Nc1ncnc2sc3c(c12)CCC3)/c1ccncc1", "Potency": "inconclusive: 15.8 µM [quencher, side channel, partial curve]"},
      {"molecule": "O=C(NCc1cccnc1)C1CCN(S(=O)(=O)c2cc(Cl)ccc2Cl)CC1", "Potency": "inconclusive: 39.8 µM [fluorescent, side channel, single point]"},
      {"molecule": "O=C(Nc1ccc2c(c1)C(=O)N(CC1CCCO1)C2=O)c1cccc(Br)c1", "note": "(stereo not drawn)", "Potency": "inconclusive: 25.1 µM [quencher, side channel, single point]"},
      {"molecule": "Nc1ccc(C(=O)OCC(=O)NC2CC2)cc1[N+](=O)[O-]", "Potency": "inconclusive: 17.8 µM [quencher, side channel, partial curve]"},
      {"molecule": "O=C(N/N=C/c1ccc(-c2cccc([N+](=O)[O-])c2)o1)c1cccs1", "Potency": "inactive"},
      {"molecule": "COc1ccc(Nc2ccc(C(=O)O)cc2[N+](=O)[O-])cc1", "Potency": "inconclusive: 15.8 µM [quencher, side channel, partial curve]"},
      {"molecule": "C/C(CC(=O)Nc1ccc([N+](=O)[O-])cc1)=N\\NC(=O)c1ccccc1O", "Potency": "inactive"},
      {"molecule": "O=C(NCCOC(=O)c1ccc([N+](=O)[O-])cc1)c1cccnc1", "Potency": "inconclusive: 12.6 µM [quencher, side channel, partial curve]"},
      {"molecule": "Cc1ccc(Cn2nnnc2CN2CCC(c3nc4ccc(Cl)cc4[nH]3)CC2)cc1", "Potency": "inactive"},
      {"molecule": "COc1ccc(Oc2nccc(OC)c2C#N)cc1", "Potency": "inactive"},
      {"molecule": "CN(C)CCc1cc2c(c3c1ccc1ccccc13)OCO2", "Potency": "inconclusive: 28.2 µM [quencher, side channel, single point]"},
      {"molecule": "CCC(CC)c1nnc(NC(=O)C2CCN(C(=O)c3ccco3)CC2)s1", "Potency": "inactive"},
      {"molecule": "O=C(Cc1ccccc1)N/N=C/c1cccn1-c1ccc([N+](=O)[O-])cc1", "Potency": "inconclusive: 3.98 µM [quencher, side channel, partial curve]"},
      {"molecule": "CCOC(=O)c1sc(C)c2c(=O)n(CC)nnc12", "Potency": "inconclusive: 14.1 µM [quencher, side channel, partial curve]"},
      {"molecule": "Cc1[nH]nc(SCC(=O)N2CCCC2)c1[N+](=O)[O-]", "Potency": "inconclusive: 28.2 µM [quencher, side channel, single point]"},
      {"molecule": "O=C(N/N=C/c1ccc(OCc2ccccc2)cc1)c1cc[n+](Cc2ccccc2)cc1", "Potency": "inconclusive: 10 µM [quencher, partial curve]"}
    ]}
  ]
}
